# Results: the supplement of paper PMC11417369
# ± gives the standard deviation of the averaged measurements. The list shows a part of the results.
# Tested on: PfAP2-LT AP2 domain (GST-tagged)
# Assay: gcPBM binding intensity (ln(normalized median fluorescence intensity)); higher = stronger DNA binding
# How it was run: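 GST-tagged P. falciparum DNA-binding domains, expressed in E. coli (about 25 μg on average), were applied for 1 h to an Agilent 4 × 180k array of primer-extended double-stranded 36-bp intergenic genomic probes plus negative controls. The binding buffer was 1× PBS with 1% milk, 0.2 mg/ml BSA, 0.5% salmon testes DNA and 0.03% Triton X-100. Bound protein was detected with Alexa488 anti-GST antibody and scanned at 488 nm. Binding intensity is the highest Masliner-normalised natural-log median intensity across replicate spots of either probe orientation.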
row,Sequence,gcPBM binding intensity (ln)
1,ATAAAATAAATGAAAAATGTAAAATGAGAAAAAAAT [CACACA_negctrl_site1026],8.97 ± 0.47
2,TATATATATATATGGGTGCATTTTTTTGTCCATGTA [GTGCAC_site9868],9.63 ± 0.23
3,TATGCTATAATACTCTGTACTTACTAATTTAATAAT [XGTACX_site5926],8.7 ± 0.41
4,TACATATTTTTTATATGTACATATTTTTTATGTGTA [XGTACX_site442],8.9 ± 0.45
5,ATATACACATAAAGTAGTACACCTGAAATTTTTTTT [XGTACX_site2951],8.86 ± 0.37
6,AATTCATTTAAAAGTTGTACAAGCTTAATAAAAAAA [XGTACX_site6073],8.61 ± 0.45
7,GAGGATATATTATATGTACACACATATATAACGGAT [CACACA_site8361],9.26 ± 0.32
8,GTATTTTTTTTAATATGTACATATAAAATATTTTAT [XGTACX_site8329],8.84 ± 0.38
9,AATACAATTTATAACACACACACAATAATACATATA [CACACA_site1252],9.77 ± 0.28
10,ATATAAGTTTATATATGTACATATATATATTATATA [XGTACX_site2068],8.66 ± 0.39
11,AATATATGAATTAGAAGTACAAATAAATATTTATTT [XGTACX_site2062],8.66 ± 0.38
12,TTAATCATAAAAGTCACACATAATAAGAAAAAGCTT [CACACA_site4616],8.78 ± 0.37
13,AATTAAAAATATAAATGTACATATATGTAAAACTTT [XGTACX_site123],9.01 ± 0.38
14,CCCATGCATTTTTGCACACACATATATATATAAATA [CACACA_site1430],9.49 ± 0.33
15,AAGAGTTTGAAGTTTGCACACTACGTTAAAAATAAA [CACACA_site3939],8.72 ± 0.59
16,AATATAATGTAATATACACACATATATTTCTCTTTT [CACACA_site5451],8.95 ± 0.45
17,CCACATTTTACAGACACACACAATTTATATTACGGT [CACACA_site1894],9.3 ± 0.34
18,AAAAATTTATTTTTAGGTACACAATTGAATTATTTA [XGTACX_site7008],8.34 ± 0.47
19,TGTAGTCTGGAGAAAAGTACATAGTATCTGATAACC [XGTACX_site2018],8.77 ± 0.5
20,GTGCATATATGATATACACACAATATAATAGTATGT [CACACA_site2460],9.17 ± 0.4
21,CCTCCCATTTTTACACGTACACATTTAAAATAGACT [XGTACX_site5640],8.95 ± 0.21
22,TGAAGAAAATATTAATGTACATATTATATATATATA [XGTACX_site5497],8.76 ± 0.3

row,Sequence,gcPBM binding intensity (ln)
1,ATATATTTAAATAAAAGTACGTAAAGGTATATTTAA [XGTACX_site8088],8.88 ± 0.44
2,ATAATAAAAAAAAAATGTACATAAATCTAAAATCCT [XGTACX_site5823],8.88 ± 0.54
3,ATTATAAATATAAATATAAATATATATTGTTCCGCA [TGCATGCA_negctrl_site470],8.54 ± 0.4
4,TTTATCCTTCTTTTGAGTACTCAAAGAGACCTATAA [XGTACX_site8050],8.53 ± 0.67
5,AAAAAAAACAGACACACACACAAATATTTATATATC [CACACA_site6342],9.74 ± 0.25
6,TATATATATATATATATATATATTTTTATTATATAT [XGTACX_negctrl_site89],9.47 ± 0.028
7,TTGCACTCGTAAAAAGCACACATATAAAAACATTTA [CACACA_site7997],8.78 ± 0.42
8,TTAAAAATGTTATAATGTACATATAATATTTTATGA [XGTACX_site5954],8.43 ± 0.35
9,AAAACACATACTATATGTACATATAATAATTTATAT [XGTACX_site4525],8.95 ± 0.38
10,TTCTGTATATAGTGTGCACACAATTAAAAAAAAAAA [CACACA_site8400],9.13 ± 0.43
11,AAGAAAAAAAAAAAAAAAAAAAAAAAAAAAAAAAAA [TGCATGCA_negctrl_site263],7.96 ± 0.23
12,ATTATAAATAAAATATGTACATATGTATAAATACAT [XGTACX_site4002],8.82 ± 0.38
13,AAATATATTTTTTTTTGTACTCAAAAAGAAAAAAAA [XGTACX_site8540],8.13 ± 0.53
14,ATAAAATTATATACTCGTACACAAAAAAAAAAAATA [XGTACX_site6035],8.77 ± 0.47
15,AAAAATTGAATGATGTGTACTTAAAAGAATATAGAA [XGTACX_site6588],8.7 ± 0.54
16,TTTACACTTTTTTTTGTACACACTAATAAGATTAAC [CACACA_site9304],8.85 ± 0.43
17,ACATTACAATTATTATAATCAATATATAACCTCTAA [TGCATGCA_negctrl_site105],8.56 ± 0.37
18,AAAAAAATTTTTAAAAGTACATTAATATTAATATGT [XGTACX_site5177],8.46 ± 0.46
19,ATATATTATATTTAAGTGCATTAATTAAAATGCTTA [GTGCAC_site9403],8.34 ± 0.36
20,CATTAATATATATATAGTACATATACACCTTCATTA [XGTACX_site8473],8.77 ± 0.45
21,AAAAAAAATCAGACAGGTACACATTCCATGTTCAAA [XGTACX_site5380],8.86 ± 0.42
22,TATGAAGTGCACAATACACACTAATTCTATATAAAT [CACACA_site7269],9.1 ± 0.45

row,Sequence,gcPBM binding intensity (ln)
1,ATAATTAAATAAAAAAGTACACATACATCATAATGC [XGTACX_site7656],8.81 ± 0.46
2,CAATTAAAAAATAATACATGCATATAAATAGATATT [TGCATGCA_site427],8.95 ± 0.42
3,AAAATAAATATAAAATGTACTTATATATATATATAT [XGTACX_site7803],8.97 ± 0.16
4,TAAGAATACGAAAGGTGTACACTGTGGAGACTTCAA [XGTACX_site2619],9.01 ± 0.37
5,TATAATATATATGTAACACACAAAAGTTATATACTT [CACACA_site2868],8.79 ± 0.4
6,TATATAATAACATATGCATGCAAGTAATATAACCAA [TGCATGCA_site324],9.32 ± 0.28
7,AGGAAATGTTTATATACATGCATAATTAAATATAAT [TGCATGCA_site672],8.74 ± 0.46
8,ATGTAATCATTTTCGACTTTTTTTTTTTTTTTTTTT [CACACA_negctrl_site1132],8.65 ± 0.51
9,TTTTTAATTAATCTTATAAATATTTATAAATATATA [CACACA_negctrl_site1485],8.13 ± 0.38
10,ATAAAATGCGCAAACACACACAAAAAAAAGATATAT [CACACA_site6875],9.48 ± 0.43
11,CATATTGTCATTCTGGTGCACTTTTTTTTTTTTTTT,8.99 ± 0.4
12,ATATAATATAACAATACGCACACGTATACAAAAAAA [CACACA_site3151],9.08 ± 0.44
13,TTTTCATGTTTTTTTCTTTATTTTTTTTTTTTTTTT [GTGCAC_negctrl_site511],8.38 ± 0.67
14,TTTTTTTATTATTATTGTACAAGGCCTTAGGTGATT [XGTACX_site5050],8.68 ± 0.53
15,TACTTAATTATAAGGACATGCACAAAAGGAATTATT [TGCATGCA_site468],8.81 ± 0.45
16,ATTATATTTCAATTATGTACATATAAAATGAATAAA [XGTACX_site4204],8.45 ± 0.38
17,TTTTTTTTTTTTTTTTTTTTCTTCATTTAATTTATA [GTGCAC_negctrl_site17],8.36 ± 0.41
18,AATTTTCATTTTAGAAGTACACACAAAAAATAAAAT [XGTACX_site4426],8.75 ± 0.42
19,AAATAAAATACAATATGATAAAATGTTATCATATAT [CACACA_negctrl_site538],8.78 ± 0.45
20,ATAAATAATATAAATACACACTAAAAAAGATATATA [CACACA_site6397],8.97 ± 0.38
21,AATAAAAGGAATAATTGTACATAATGATTATACGTT [XGTACX_site7548],8.84 ± 0.38
22,TTATTTTAATTTTTGGTGCATATTCAAGTGTACCTT [GTGCAC_site9791],8.71 ± 0.46

row,Sequence,gcPBM binding intensity (ln)
1,TAATGTACTTAAACCGCACACATATAAAAAAATAAA [CACACA_site8926],9.04 ± 0.38
2,TTTTGTAAAATTAATTTATTATACATATATATTTCT [GTGCAC_negctrl_site728],8.56 ± 0.53
3,TATTTACATATTTATATACACACTTTTGCGTGTCTG [CACACA_site1110],9.36 ± 0.67
4,AATACTCCATTGTATAGTACATATATTTTTATTTAT [XGTACX_site3641],8.78 ± 0.41
5,AATAAAAAAAAAAATAATATATATGTATAAATATAT [CACACA_negctrl_site1561],8.54 ± 0.47
6,AGAATTTATAAAAACTGTACATATTTTCCAGTTATA [XGTACX_site2848],8.54 ± 0.45
7,TATTTTTATTTATATACACACTTACATATTTATATT [CACACA_site7666],8.97 ± 0.44
8,GTTGTAAAAAGAAAATGTACGTAATAAATATATATA [XGTACX_site3081],8.9 ± 0.45
9,GTATATTATTTACGTTTGCACTTCATTTTATAGTAA,9.11 ± 0.38
10,TTCTTCAAAAAAAATTGTACACATCTCTCAAATGTT [XGTACX_site2952],8.61 ± 0.48
11,AATGGATGAATGAATGTATGAATGAATGTATGAATG [CACACA_negctrl_site91],8.96 ± 0.42
12,TATTAATTGTGGCACCTTGTATGTTTACAATGACAT [CACACA_negctrl_site1383],9.04 ± 0.46
13,AAAAAAAAAAAAAAGAGTACACAGACGTTCAAAGGT [XGTACX_site7566],9.11 ± 0.49
14,TGTATGTATTAATGCGCACACAAAAAATAACAATAT [CACACA_site1848],9.48 ± 0.42
15,TATTGATTTAGAAACACACACTCGAAGATGTTTAAC [CACACA_site1129],8.82 ± 0.38
16,ATATAGATATATAGTAGTACTTGTTATATAAGATAA [XGTACX_site6336],8.74 ± 0.36
17,ACAGAGCTTTAAATACGTACATAATATATATTAAAT [XGTACX_site8221],8.77 ± 0.43
18,ATAAAAAAAAAATAATGTACTTATATATATATATAT [XGTACX_site8282],9.06 ± 0.085
19,ATATATATATATAAATGTACATTGTGTGTTGTAAGA [XGTACX_site2434],9.25 ± 0.27
20,TTAAAAATGTTGGAAAGTACATATTTTTTAAAAGTA [XGTACX_site802],8.41 ± 0.35
21,CGCCTATAAGCTTAGACACACAAATAAATAAATATA [CACACA_site1264],8.65 ± 0.52
22,TATTGGGGGTATAAACACAGTAAGTAAATAAATAAA [CACACA_negctrl_site1680],8.69 ± 0.52
